# Experimental data published in the supplement of paper PMC8728848.
# This is one part of the list.
# Tests used:
# Assay in all cases: glycan array binding signal (z-score within array); higher = stronger binding
# Conditions in all cases: glycan notation: IUPAC condensed, linker removed
# [1] = molecular target: Gal(b1-3)GlcNAc(b1-3)Gal(b1-4)GlcNAc(b1-2)[Gal(b1-3)GlcNAc(b1-3)Gal(b1-4)GlcNAc(b1-6)]Man(a1-6)[Gal(b1-3)GlcNAc(b1-3)Gal(b1-4)GlcNAc(b1-2)Man(a1-3)]Man(b1-4)GlcNAc(b1-4)[Fuc(a1-6)]GlcNAc
# In short: (§1)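 The binding signal is a Z-score computed within each array. Data were drawn from 3228 arrays in the Consortium for Functional Glycomics database, restricted to those with a known protein sequence. Scores were averaged over arrays of the same protein sequence at different concentrations or buffers, and over linkers, and negative values can be taken as non-binding.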
# [2] = molecular target: Gal(b1-3)GlcNAc(b1-3)Gal(b1-4)GlcNAc(b1-3)Gal(b1-4)GlcNAc(b1-2)[Gal(b1-3)GlcNAc(b1-3)Gal(b1-4)GlcNAc(b1-3)Gal(b1-4)GlcNAc(b1-6)]Man(a1-6)[Gal(b1-3)GlcNAc(b1-3)Gal(b1-4)GlcNAc(b1-3)Gal(b1-4)GlcNAc(b1-2)Man(a1-3)]Man(b1-4)GlcNAc(b1-4)[Fuc(a1-6)]GlcNAc
# In short: as §1
# [3] = molecular target: Gal(b1-3)GlcNAc(b1-3)Gal(b1-4)GlcNAc(b1-6)[Gal(b1-3)GlcNAc(b1-3)]Gal(b1-4)Glc
# In short: as §1
# [4] = molecular target: Gal(b1-3)GlcNAc(b1-3)Gal(b1-4)[Fuc(a1-3)]GlcNAc
# In short: as §1
# [5] = molecular target: Gal(b1-3)GlcNAc(b1-3)Gal(b1-4)[Fuc(a1-3)]GlcNAc(b1-6)[Gal(b1-3)GlcNAc(b1-3)]Gal(b1-4)Glc
# In short: as §1
# [6] = molecular target: Gal(b1-3)GlcNAc(b1-3)GalNAc
# In short: as §1
# [7] = molecular target: Gal(b1-3)GlcNAc(b1-6)Gal(b1-4)GlcNAc
# In short: as §1
# [8] = molecular target: Gal(b1-3)GlcNAc(b1-6)GalNAc
# In short: as §1
# [9] = molecular target: Gal(b1-3)GlcNAc(b1-6)[Gal(b1-3)]GalNAc
# In short: as §1
# [10] = molecular target: Gal(b1-3)GlcNAc6S
# In short: as §1
# [11] = molecular target: Gal(b1-3)[Fuc(a1-4)]GlcNAc
# In short: as §1
# [12] = molecular target: Gal(b1-3)[Fuc(a1-4)]GlcNAc(b1-2)Man
# In short: as §1
# [13] = molecular target: Gal(b1-3)[Fuc(a1-4)]GlcNAc(b1-2)Man(a1-3)[Gal(b1-3)[Fuc(a1-4)]GlcNAc(b1-2)Man(a1-6)]Man(b1-4)GlcNAc(b1-4)GlcNAc
# In short: as §1
# [14] = molecular target: Gal(b1-3)[Fuc(a1-4)]GlcNAc(b1-2)Man(a1-3)[Gal(b1-3)[Fuc(a1-4)]GlcNAc(b1-2)Man(a1-6)]Man(b1-4)GlcNAc(b1-4)[Fuc(a1-6)]GlcNAc
# In short: as §1
# [15] = molecular target: Gal(b1-3)[Fuc(a1-4)]GlcNAc(b1-3)Gal(b1-3)[Fuc(a1-4)]GlcNAc
# In short: as §1
# [16] = molecular target: Gal(b1-3)[Fuc(a1-4)]GlcNAc(b1-3)Gal(b1-4)GlcNAc
# In short: as §1
# [17] = molecular target: Gal(b1-3)[Fuc(a1-4)]GlcNAc(b1-3)Gal(b1-4)[Fuc(a1-3)]GlcNAc
# In short: as §1
# [18] = molecular target: Gal(b1-3)[Fuc(a1-4)]GlcNAc(b1-6)GalNAc
# In short: as §1
# [19] = molecular target: Gal(b1-3)[GlcNAc(b1-6)]GalNAc
# In short: as §1
# [20] = molecular target: Gal(b1-3)[Neu5Ac(a2-6)]GalNAc
# In short: as §1
# [21] = molecular target: Gal(b1-3)[Neu5Ac(a2-6)]GlcNAc(b1-4)Gal(b1-4)Glc
# In short: as §1
# [22] = molecular target: Gal(b1-3)[Neu5Ac(a2-6)]GlcNAc(b1-6)Gal(b1-4)Glc
# In short: as §1
# [23] = molecular target: Gal(b1-3)[Neu5Ac(b2-6)]GalNAc
# In short: as §1
# [24] = molecular target: Gal(b1-4)Gal
# In short: as §1
# [25] = molecular target: Gal(b1-4)GalNAc(a1-3)[Fuc(a1-2)]Gal(b1-4)GlcNAc
# In short: as §1
# [26] = molecular target: Gal(b1-4)GalNAc(b1-3)[Fuc(a1-2)]Gal(b1-4)GlcNAc
# In short: as §1
# [27] = molecular target: Gal(b1-4)Glc
# In short: as §1
# [28] = molecular target: Gal(b1-4)Glc6S
# In short: as §1
# [29] = molecular target: Gal(b1-4)GlcNAc
# In short: as §1
# [30] = molecular target: Gal(b1-4)GlcNAc(a1-6)Gal(b1-4)GlcNAc
# In short: as §1
# [31] = molecular target: Gal(b1-4)GlcNAc(b1-2)Man
# In short: as §1
# [32] = molecular target: Gal(b1-4)GlcNAc(b1-2)Man(a1-3)Man(b1-4)GlcNAc(b1-4)GlcNAc
# In short: as §1
# [33] = molecular target: Gal(b1-4)GlcNAc(b1-2)Man(a1-3)[Gal(b1-4)GlcNAc(b1-2)Man(a1-6)]Man(b1-4)GlcNAc(b1-4)GlcNAc
# In short: as §1
# [34] = molecular target: Gal(b1-4)GlcNAc(b1-2)Man(a1-3)[Gal(b1-4)GlcNAc(b1-2)Man(a1-6)]Man(b1-4)GlcNAc(b1-4)[Fuc(a1-6)]GlcNAc
# In short: as §1
# [35] = molecular target: Gal(b1-4)GlcNAc(b1-2)Man(a1-3)[Gal(b1-4)GlcNAc(b1-2)Man(a1-6)][Gal(b1-4)GlcNAc(b1-4)]Man(b1-4)GlcNAc(b1-4)[Fuc(a1-6)]GlcNAc
# In short: as §1
# [36] = molecular target: Gal(b1-4)GlcNAc(b1-2)Man(a1-3)[Gal(b1-4)GlcNAc(b1-2)Man(a1-6)][GlcNAc(b1-4)]Man(b1-4)GlcNAc(b1-4)[Fuc(a1-6)]GlcNAc
# In short: as §1
# [37] = molecular target: Gal(b1-4)GlcNAc(b1-2)Man(a1-3)[GlcNAc(b1-2)Man(a1-6)]Man(b1-4)GlcNAc(b1-4)GlcNAc
# In short: as §1
# [38] = molecular target: Gal(b1-4)GlcNAc(b1-2)Man(a1-3)[GlcNAc(b1-4)][Gal(b1-4)GlcNAc(b1-2)Man(a1-6)]Man(b1-4)GlcNAc(b1-4)GlcNAc
# In short: as §1
# [39] = molecular target: Gal(b1-4)GlcNAc(b1-2)Man(a1-3)[Man(a1-6)]Man(b1-4)GlcNAc(b1-4)GlcNAc
# In short: as §1
# [40] = molecular target: Gal(b1-4)GlcNAc(b1-2)Man(a1-6)Man(b1-4)GlcNAc(b1-4)GlcNAc
# In short: as §1
# [41] = molecular target: Gal(b1-4)GlcNAc(b1-2)Man(a1-6)[GlcNAc(b1-2)Man(a1-3)]Man(b1-4)GlcNAc(b1-4)GlcNAc
# In short: as §1
# [42] = molecular target: Gal(b1-4)GlcNAc(b1-2)Man(a1-6)[Man(a1-3)]Man(b1-4)GlcNAc(b1-4)GlcNAc
# In short: as §1
# [43] = molecular target: Gal(b1-4)GlcNAc(b1-2)[Gal(b1-4)GlcNAc(b1-4)]Man(a1-3)[Gal(b1-4)GlcNAc(b1-2)Man(a1-6)]Man(b1-4)GlcNAc(b1-4)GlcNAc
# In short: as §1
# [44] = molecular target: Gal(b1-4)GlcNAc(b1-2)[Gal(b1-4)GlcNAc(b1-4)]Man(a1-3)[Gal(b1-4)GlcNAc(b1-2)[Gal(b1-4)GlcNAc(b1-6)]Man(a1-6)]Man(b1-4)GlcNAc(b1-4)GlcNAc
# In short: as §1
# [45] = molecular target: Gal(b1-4)GlcNAc(b1-2)[Gal(b1-4)GlcNAc(b1-4)]Man(a1-3)[GlcNAc(b1-4)][Gal(b1-4)GlcNAc(b1-2)Man(a1-6)]Man(b1-4)GlcNAc(b1-4)GlcNAc
# In short: as §1
binder,measurement,setting,value
"rCNL (Clitocybe nebularis), B2ZRS9 (protein) SITPGTYNITNVAYTNRLIDLTGSNPAENTLIIGHHLNKTPSGYGNQQWTLVQLPHTTIYTMQAVNPQSYVRVRDDNLVDGAALVGSQQPTPVSIESAGNSGQFRIKIPNLGLALTLPSDANSTPIVLGEVDETSTNQLWAFESVSAV",glycan array binding signal (z-score),[1],-0.195
same,glycan array binding signal (z-score),[2],-0.203
same,glycan array binding signal (z-score),[3],-0.019
same,glycan array binding signal (z-score),[4],-0.216
same,glycan array binding signal (z-score),[5],-0.102
same,glycan array binding signal (z-score),[6],-0.295
same,glycan array binding signal (z-score),[7],-0.241
same,glycan array binding signal (z-score),[8],-0.203
same,glycan array binding signal (z-score),[9],-0.215
same,glycan array binding signal (z-score),[10],-0.226
same,glycan array binding signal (z-score),[11],-0.303
same,glycan array binding signal (z-score),[12],-0.187
same,glycan array binding signal (z-score),[13],-0.322
same,glycan array binding signal (z-score),[14],-0.262
same,glycan array binding signal (z-score),[15],-0.306
same,glycan array binding signal (z-score),[16],-0.278
same,glycan array binding signal (z-score),[17],-0.31
same,glycan array binding signal (z-score),[18],-0.22
same,glycan array binding signal (z-score),[19],0.203
same,glycan array binding signal (z-score),[20],-0.019
same,glycan array binding signal (z-score),[21],-0.226
same,glycan array binding signal (z-score),[22],-0.252
same,glycan array binding signal (z-score),[23],-0.305
same,glycan array binding signal (z-score),[24],-0.215
same,glycan array binding signal (z-score),[25],1.04
same,glycan array binding signal (z-score),[26],0.228
same,glycan array binding signal (z-score),[27],-0.28
same,glycan array binding signal (z-score),[28],-0.306
same,glycan array binding signal (z-score),[29],-0.261
same,glycan array binding signal (z-score),[30],-0.288
same,glycan array binding signal (z-score),[31],-0.215
same,glycan array binding signal (z-score),[32],-0.275
same,glycan array binding signal (z-score),[33],-0.13
same,glycan array binding signal (z-score),[34],-0.126
same,glycan array binding signal (z-score),[35],-0.179
same,glycan array binding signal (z-score),[36],-0.221
same,glycan array binding signal (z-score),[37],-0.137
same,glycan array binding signal (z-score),[38],-0.207
same,glycan array binding signal (z-score),[39],-0.269
same,glycan array binding signal (z-score),[40],-0.178
same,glycan array binding signal (z-score),[41],-0.16
same,glycan array binding signal (z-score),[42],-0.166
same,glycan array binding signal (z-score),[43],-0.017
same,glycan array binding signal (z-score),[44],-0.022
same,glycan array binding signal (z-score),[45],-0.152
